Laboratory results published in the supplement of paper PMC12217912.
The list shows a part of the results. Sequences were assembled here from the parent chain. Values near 0.05 are background.

B1: TEV protease; numbered along this chain (parent)
chain: MGESLFKGPRDYNPISSSICHLTNESDGHTTSLYGIGFGPFIITNKHLFRRNNGTLVVQSLHGVFKVKDTTTLQQHLVDGRDMIIIRMPKDFPPFPQKLKFREPQREERICLVTTNFQTKSMSSMVSDTSCTFPSGDGIFWKHWIQTKDGQCGSPLVSTRDGFIVGIHSASNFTNTNNYFTSVPKNFMELLTNQEAQQWVSGWRLNADSVLWGGHKVFMVKPEEPFQPVKEATQL

Variants of: B1
Test: raw area under fraction-flipped curve 0-4 h after induction (AUC4h, not background-subtracted), DNA-recorder readout of cleavage of the substrate (dimensionless); higher = more cleavage of the substrate by the protease variant
Details: temperature: 34 °C; time window: 0-4 h after rhamnose induction
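Note: Bxb1 expression induced with 0.2% (w/v) L-rhamnose at OD600 near 0.5, cultures sampled hourly, flipped fraction per protease–substrate barcode pair counted by paired-end Illumina sequencing.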

Which “area with substrate ECLYFQS” value does the source give for MGESLFKGPRDYNPISSSICHLTNESDGHTTSLYGIGFGPFIITNKHLFRRNNGTLVVQSLHGVFKVKDTTTLQQHLVDGRDMIIIRMPKDFPPFPQKLKFREPQREERICLVTTNFQTKSMSSMVSDTSCTFPSGDGIFWKHWIQTKDGQCGSPLVSTRDGFIVGIHSASNFTYTNNYFTSVPKNFMELLTNQEAQQWVSGWRLNADSVLWGGHKVFMVKPEEPFQPVKEATQL [N175Y] here?
The value was 0.074.

What about the “area with substrate EDLYFQS” value of the same variant?
The value was 0.101.

What about the “area with substrate EELYFQS” value of the same variant?
The value was 0.0656.

And the “area with substrate EFLYFQS” value?
Its value is 0.062.

What about the “area with substrate EILYFQS” value of the same variant?
The value was 0.0624.

And the “area with substrate ELLYFQS” value?
The value was 0.0726.

And the “area with substrate EMLYFQS” value?
The value was 0.064.

And the “area with substrate EPLYFQS” value?
Its value is 0.0999.

And the “area with substrate EQLYFQS” value?
The value was 0.0828.

And the “area with substrate ERLYFQS” value?
Its value is 0.0692.

What about the “area with substrate ESLYFQS” value of the same variant?
Its value is 0.0625.

What about the “area with substrate ETLYFQS” value of the same variant?
The value was 0.073.

And the “area with substrate EVLYFQS” value?
Its value is 0.0678.

What about the “area with substrate EWLYFQS” value of the same variant?
Its value is 0.0704.

Which “area with substrate ECLYFQS” value does the source give for MGESLFKGPRDYNPISSSICHLTNESDGHTTSLYGIGFGPFIITNKHLFRRNNGTLVVQSLHGVFKVKDTTTLQQHLVDGRDMIIIRMPKDFPPFPQKLKFREPQREERICLVTTNFQTKSMSSMVSDTSCTFPSGDGIFWKHWIQTKDGQCGSPLVSTRDGFIVGIHSASNFTNTNNYFTSVPKNFMELLTNQEAQQWVSGWRLNADSVLWDGHKVFMVKPEEPFQPVKEATQL [G213D] here?
The value was 0.0642.

And the “area with substrate EFLYFQS” value?
Its value is 0.0838.

What about the “area with substrate EHLYFQS” value of the same variant?
Its value is 0.0606.

What about the “area with substrate EILYFQS” value of the same variant?
Its value is 0.0756.

And the “area with substrate EKLYFQS” value?
Its value is 0.0786.

What about the “area with substrate EMLYFQS” value of the same variant?
The value was 0.069.

What about the “area with substrate EPLYFQS” value of the same variant?
The value was 0.075.

What about the “area with substrate EQLYFQS” value of the same variant?
Its value is 0.0807.

And the “area with substrate ERLYFQS” value?
Its value is 0.0781.

And the “area with substrate ESLYFQS” value?
The value was 0.0561.

And the “area with substrate EVLYFQS” value?
Its value is 0.057.

What about the “area with substrate EWLYFQS” value of the same variant?
Its value is 0.0736.

And the “area with substrate EYLYFQS” value?
The value was 0.0744.

What does the source list for MGESLFKGPRDYNPISSSICHLTNESDGHTTSLYGIGFGPFIITNKHLFRRNNGTLVVQSLHGVFKVKDTTTLQQHLVDGRDMIIIRMPKDFPPFPQKLKFREPQREERICLVTTNFQTKSMSSMVSDTSCTFPSGDGIFWKHWIQTKDGQCGSPLVSTRDGFIVGIHSASNFTNTNNYFASVPKNFMELLTNQEAQQWVSGWRLNADSVLWGGHKVFMVKPEEPFQPVKEATQL [T181A]?
area with substrate ECLYFQS: 0.123; area with substrate EDLYFQS: 0.136; area with substrate EGLYFQS: 0.111; area with substrate EHLYFQS: 0.148; area with substrate EILYFQS: 0.122; area with substrate EKLYFQS: 0.124; area with substrate EMLYFQS: 0.13; area with substrate EPLYFQS: 0.15; area with substrate EQLYFQS: 0.141; area with substrate ERLYFQS: 0.13; area with substrate ESLYFQS: 0.115; area with substrate ETLYFQS: 0.121; area with substrate EWLYFQS: 0.157

Which “area with substrate ECLYFQS” value does the source give for MGESLFKGPRDYNPISSSICHLTNESDGHTTSLYGIGFGPFIITNKHLFRRNNGTLVVQSLHGVFKVKDTTTLQQHLVDGRDMIIIRMPKDFPPFPQKLKFREPQREERICLVTTNFQTKSMSSMVSDTSCTFPSGDGIFWKHWIQTKDGQCGSPLVSTRDGFIVGIHSASNFTNTNNYFYSVPKNFMELLTNQEAQQWVSGWRLNADSVLWGGHKVFMVKPEEPFQPVKEATQL [T181Y] here?
Its value is 0.0642.

And the “area with substrate EELYFQS” value?
The value was 0.0529.

And the “area with substrate EFLYFQS” value?
The value was 0.0714.

What about the “area with substrate EGLYFQS” value of the same variant?
The value was 0.0588.

And the “area with substrate EHLYFQS” value?
Its value is 0.0791.

And the “area with substrate EILYFQS” value?
The value was 0.045.

And the “area with substrate EKLYFQS” value?
The value was 0.0457.

And the “area with substrate EPLYFQS” value?
The value was 0.0603.

What about the “area with substrate EQLYFQS” value of the same variant?
The value was 0.102.

What about the “area with substrate ERLYFQS” value of the same variant?
Its value is 0.0517.

And the “area with substrate ESLYFQS” value?
The value was 0.0529.

And the “area with substrate ETLYFQS” value?
Its value is 0.044.

And the “area with substrate EVLYFQS” value?
The value was 0.0509.

What about the “area with substrate EWLYFQS” value of the same variant?
The value was 0.0701.

Which “area with substrate ECLYFQS” value does the source give for MGESLFKGPRDYNPISSSICHLTNESDGHTTSLYGIGFGPFIITNKHLFRRNNGTLVVQSLHGVFKVKDTTTLQQHLVDGRDMIIIRMPKDFPPFPQKLKFREPQREERICLVTTNFQTKSMSSMVSDTSCTFPSGDGIFWKHWIQTKDGQCGSPLVSTRDGFIVGIHSASNFTNTNNYFTSVPKNFMELLTNQEAQQWVSGWRLNVDSVLWGGHKVFMVKPEEPFQPVKEATQL [A207V] here?
The value was 0.106.

And the “area with substrate EFLYFQS” value?
The value was 0.0967.

What about the “area with substrate EGLYFQS” value of the same variant?
Its value is 0.126.

What about the “area with substrate EHLYFQS” value of the same variant?
Its value is 0.125.

And the “area with substrate EILYFQS” value?
The value was 0.0966.

What about the “area with substrate EKLYFQS” value of the same variant?
Its value is 0.0844.

What about the “area with substrate ELLYFQS” value of the same variant?
Its value is 0.0957.

And the “area with substrate EMLYFQS” value?
Its value is 0.108.

And the “area with substrate ERLYFQS” value?
The value was 0.108.

And the “area with substrate ESLYFQS” value?
Its value is 0.105.

What about the “area with substrate ETLYFQS” value of the same variant?
The value was 0.126.

And the “area with substrate EVLYFQS” value?
The value was 0.0899.

What about the “area with substrate EYLYFQS” value of the same variant?
The value was 0.128.

With MGESLFKGPRDYNPISSSICHLTNESDGHTTSLYGIGFGPFIITNKHLFRRNNGTLVVQSLHGVFKVKDTTTLQQHLVDGRDMIIIRMPKDFPPFPQKLKFREPQREERICLVTTNFQTKSMSSMVSDTSCTFPSGDGIFWKHWIQTKDGQCGSPLVSTRDGFIVGIHSASNFTNTNNYFTSVPKNHMELLTNQEAQQWVSGWRLNADSVLWGGHKVFMVKPEEPFQPVKEATQL [F187H] as the variant, how does the “area with substrate ECLYFQS” value read?
The value was 0.0661.

And the “area with substrate EELYFQS” value?
Its value is 0.0765.

What about the “area with substrate EFLYFQS” value of the same variant?
The value was 0.0489.

What about the “area with substrate EGLYFQS” value of the same variant?
The value was 0.0628.

And the “area with substrate EHLYFQS” value?
Its value is 0.0659.

What about the “area with substrate EILYFQS” value of the same variant?
Its value is 0.0583.

What about the “area with substrate EKLYFQS” value of the same variant?
The value was 0.0722.

And the “area with substrate ELLYFQS” value?
Its value is 0.0728.

And the “area with substrate EMLYFQS” value?
Its value is 0.0626.

What about the “area with substrate ERLYFQS” value of the same variant?
Its value is 0.0557.

And the “area with substrate ESLYFQS” value?
The value was 0.0657.

And the “area with substrate ETLYFQS” value?
Its value is 0.0587.

And the “area with substrate EVLYFQS” value?
The value was 0.0732.

What about the “area with substrate EWLYFQS” value of the same variant?
Its value is 0.0577.

What about the “area with substrate EYLYFQS” value of the same variant?
Its value is 0.0692.

With MGESLFKGPRDYNPISSSICHLTNESDGHTTSLYGIGFGPFIITNKHLFRRNNGTLVVQSLHGVFKVKDTTTLQQHLVDGRDMIIIRMPKDFPPFPQKLKFREPQREERICLVTTNFQTKSMSSMVSDTSCTFPSGDGIFWKHWIQTKDGQCGSPLVSTRDGFIVGIHSASNFTNTNNYFTSVPKNFMELLTNQEAQQDVSGWRLNADSVLWGGHKVFMVKPEEPFQPVKEATQL [W199D] as the variant, how does the “area with substrate ECLYFQS” value read?
The value was 0.0634.

And the “area with substrate EDLYFQS” value?
The value was 0.0679.

What about the “area with substrate EHLYFQS” value of the same variant?
Its value is 0.0644.

What about the “area with substrate EILYFQS” value of the same variant?
The value was 0.0629.

What about the “area with substrate EKLYFQS” value of the same variant?
Its value is 0.0707.

What about the “area with substrate EMLYFQS” value of the same variant?
The value was 0.0826.

What about the “area with substrate EQLYFQS” value of the same variant?
The value was 0.0691.

What about the “area with substrate ERLYFQS” value of the same variant?
The value was 0.0569.

And the “area with substrate ESLYFQS” value?
The value was 0.0612.

And the “area with substrate ETLYFQS” value?
Its value is 0.0643.

And the “area with substrate EVLYFQS” value?
The value was 0.0692.

What about the “area with substrate EWLYFQS” value of the same variant?
The value was 0.0656.

With MGESLFKGPRDYNPISSSICHLTNESDGHTTSLYGIGFGPFIITNKHLFRRNNGTLVVQSLHGVFKVKDTTTLQQHLVDGRDMIIIRMPKDFPPFPQKLKFREPQREERICLVTTNFQTKSMSSMVSDTSCTFPSGDGIFWKHWIQTKDGQCGSPLVSTRDGFIVGIHSASNFTNTNNYFTSVPKNFYELLTNQEAQQWVSGWRLNADSVLWGGHKVFMVKPEEPFQPVKEATQL [M188Y] as the variant, how does the “area with substrate ECLYFQS” value read?
Its value is 0.107.

And the “area with substrate EDLYFQS” value?
Its value is 0.109.

What about the “area with substrate EFLYFQS” value of the same variant?
The value was 0.0867.

What about the “area with substrate EGLYFQS” value of the same variant?
Its value is 0.0925.

And the “area with substrate EHLYFQS” value?
Its value is 0.122.

What about the “area with substrate EILYFQS” value of the same variant?
The value was 0.078.

And the “area with substrate EKLYFQS” value?
The value was 0.108.

What about the “area with substrate ELLYFQS” value of the same variant?
Its value is 0.106.

What about the “area with substrate EMLYFQS” value of the same variant?
Its value is 0.124.

And the “area with substrate EQLYFQS” value?
Its value is 0.119.

What about the “area with substrate ERLYFQS” value of the same variant?
The value was 0.0911.

What about the “area with substrate ESLYFQS” value of the same variant?
Its value is 0.114.

What about the “area with substrate ETLYFQS” value of the same variant?
The value was 0.105.

What about the “area with substrate EVLYFQS” value of the same variant?
Its value is 0.0823.

And the “area with substrate EWLYFQS” value?
Its value is 0.0941.

Which “area with substrate ECLYFQS” value does the source give for MGESLFKGPRDYNPISSSICHLTNESDGHTTSLYGIGFGPFIITNKHLFRRNNGTLVVQSLHGVFKVKDTTTLQQHLVDGRDMIIIRMPKDFPPFPQKLKFREPQREERICLVTTNFQTKSMSSMVSDTSCTFPSGDGIFWKHWIQTKDGQCGSPLVSTRDGFIVGIHSASNFTNTNNYFTSEPKNFMELLTNQEAQQWVSGWRLNADSVLWGGHKVFMVKPEEPFQPVKEATQL [V183E] here?
The value was 0.0605.

And the “area with substrate EGLYFQS” value?
Its value is 0.0467.

What about the “area with substrate EILYFQS” value of the same variant?
The value was 0.0615.

And the “area with substrate EKLYFQS” value?
Its value is 0.0508.

What about the “area with substrate ELLYFQS” value of the same variant?
The value was 0.0306.

What about the “area with substrate EQLYFQS” value of the same variant?
The value was 0.0642.

What about the “area with substrate ERLYFQS” value of the same variant?
The value was 0.0521.

What about the “area with substrate ESLYFQS” value of the same variant?
The value was 0.0481.

What about the “area with substrate EWLYFQS” value of the same variant?
The value was 0.0445.
